Test results as given in the supplement of paper PMC11417369.
The list shows a part of the results.

System: PfAP2-HC AP2 domain (GST-tagged)
Experiment: gcPBM binding intensity (ln(normalized median fluorescence intensity)); higher = stronger DNA binding
Outline: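 After 1 h on an Agilent 4 × 180k array of primer-extended double-stranded 36-bp intergenic genomic probes and negative controls, bound GST-tagged P. falciparum DNA-binding domains were detected with Alexa488 anti-GST antibody and scanned at 488 nm. The domains had been expressed in E. coli, and binding took place in 1× PBS with 1% milk, 0.2 mg/ml BSA, 0.5% salmon testes DNA and 0.03% Triton X-100. Binding intensity is the highest Masliner-normalised natural-log median intensity across replicate spots of either probe orientation.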

Sequence | gcPBM binding intensity (ln)
ATTTATATATATTTATGTACGTATTAATTTTTTTTT [XGTACX_site3877] | 9.77
AATGAATCCTTATATACACACATTATTATAGTATAG [CACACA_site7454] | 9.81
ATTATTTGTAATATAACACACACAAAAAAAGACTCG [CACACA_site8487] | 10.1
TCTTTATCCTTTCTCTTTTTATTAATTATAATATTC [TGCATGCA_negctrl_site584] | 9.68
ATTATACCGTATTTTGCATGTAGTATTTTCATTTTA [TGCATGCA_site1021] | 9.81
ATTAATTATGTATTTCAACAAAGAAGTGTTATATAT [GTGCAC_negctrl_site215] | 9.59
ATATATACCTAAGACACACACATATATATATATATA [CACACA_site764] | 10.5
AAGGAAAATATTAACTGTACATATAAAATATATATA [XGTACX_site5310] | 9.66
AAATGTACAGGACGCACACACATATATATATATATA [CACACA_site3674] | 9.97
TATCATTTATATATGTGTACTTATTTATTTATTTAT [XGTACX_site7961] | 9.81
AAATGAATTTAACAATGTACACATATATTATAAATA [XGTACX_site1449] | 9.59
ATATATATATGTATATGTACTCATTCTTCTGTGTTT [XGTACX_site5014] | 9.84
ATATACATTCTATATACATGCATACTTCATTTTGTG [TGCATGCA_site966] | 9.79
TAAGTCAAAACTTTTTTTTCTAAATTTCCATAATTA [GTGCAC_negctrl_site29] | 9.28
TACATAATAATAAGGCGTACATAAAAATTAAAAATT [XGTACX_site8769] | 9.65
AAAACGATTTTTTGCACACACATAATAAGCAGAACA [CACACA_site3871] | 10
TATCTACTTAAATAAAATAAAAATAATAAATAAAAA [TGCATGCA_negctrl_site312] | 9.5
ATAAAACAAAGACACACACACATACACAAAAAAAAA [CACACA_site7752] | 10.5
AATAATCATGATCATAGTACGTATGAATACAAAAAA [XGTACX_site265] | 9.76
ATGTATAATATTTTCACACACAAGAAAAAAGAAAAG [CACACA_site3591] | 10
ACATTATGTCATAAATGTACACATACATATACATAC [XGTACX_site8998] | 9.74
TTTTATTTATTCCTACTTTTTTATTTATTTATTTAA [XGTACX_negctrl_site415] | 9.55

Sequence | gcPBM binding intensity (ln)
CGTATGTATATATATATACACACTTCTGTGATACGA [CACACA_site1949] | 9.67
GGTATATAAAAATATTGTACTTAAAAAAATATGTAT [XGTACX_site6253] | 9.56
TATTTCACTTTTTGTCTGCACTAAAATTTTATGGTA | 9.71
TAGATACATAAACACACACACACATACATATATACA [CACACA_site9139] | 10.6
AAAAAAAAAAAAAACACACACATATATATAATATAT [CACACA_site3172] | 10.8
TTTTGACTAATATAATATGTTAAGAATTAATAAATA [XGTACX_negctrl_site35] | 8.9
AAGTATAGTCTTACATATATATATATATATATATAT [GTGCAC_negctrl_site280] | 9.89
CAAAAAGATAAGGTGTGTACGTATTATAATTTTAAA [XGTACX_site531] | 9.78
ATTTAATTTTCCAAATGTACTTATATTTTTATGAAA [XGTACX_site6144] | 9.38
TGAAATGATCTTTAGTTGCACTTAAAAATATATATA | 9.43
GTAATATTAATATAATGTACAAAATGAAACATATAT [XGTACX_site6219] | 9.78
CAGTTTAATTTACATAGTACATAATATTTTAATTTT [XGTACX_site1793] | 9.65
ACAATATTATTATTTAACCATACACAATTATATGTC [XGTACX_negctrl_site378] | 9.69
TAAGAAATAAATAGTACACACATAGACACCCACCGA [CACACA_site1516] | 10.4
TTTATTTTTCCATATGCACACACACCGTATATATAA [CACACA_site8293] | 10.4
AAAACAAACACATTTACACACATAAATAAATCAATT [CACACA_site4122] | 10.3
AAAATATAAATATATTTGAACATGGATCAAATGTAA [GTGCAC_negctrl_site626] | 9.62
ATACATACATACATACGTACATATGTATATATATAT [XGTACX_site8498] | 9.87
TATTCATTCTATAAAACACACAAATATTTTTGTATC [CACACA_site666] | 9.67
ATGTTCTATAAATATGAACACACGACATATTATTTA [CACACA_site1799] | 9.6
TGTAGTATCAATTTTTGTACATAACACATATGTATA [XGTACX_site613] | 9.59
TATATTTAATTACATGAACACACATTATATATTTTT [CACACA_site8969] | 9.78

Sequence | gcPBM binding intensity (ln)
ATATATATATATATATGTACATATTATTCTCATTGT [XGTACX_site6259] | 9.69
ATAAAATATAAAAACGCACACAATTATAAGGGTGTA [CACACA_site177] | 10.3
ATATATATATATAAAGTGCAAAAATGAAAGTAAGAC [GTGCAC_site9850] | 10.5
GTATATGAATGTTCATGTACATAATAAAATATATAA [XGTACX_site250] | 9.7
AAATTAAAATATAATACACACATAAAAAAAAAATCA [CACACA_site5918] | 9.94
CAATTAAACAATTAAACATGCAAAATGATATAATAA [TGCATGCA_site240] | 9.67
AAACAATTTAGACATACACACAAAAATAATATTATA [CACACA_site384] | 10.3
CACGAAAATTTGTAGAGTACATATATAATTAATATA [XGTACX_site3808] | 9.46
ATATATATATATATATGTACATATTGTATTATTCAC [XGTACX_site6511] | 9.76
ATTAAAAAAAAGCTCATCGAAATGTCTTATATAAAT [CACACA_negctrl_site912] | 9.62
TATAATAATATTTATTGTACGATTAGATTAATTCAT [XGTACX_site612] | 9.47
GAGCATTACACATATACACACATATATATAAACATA [CACACA_site5515] | 10
CATATGATATTATTTTGTACTTATTACAAATATGAA [XGTACX_site7929] | 9.52
ATATATATATATATTTGTACATAATATATATATGCA [XGTACX_site1795] | 9.57
AAAAAAAAATAGAAATGTACAAATTGTAATAATTCC [XGTACX_site6182] | 9.72
ATTTTCCTATTTAGTAGTACTTTTTTCTTTTTTTAA [XGTACX_site5260] | 9.7
TTATATTTCACAAATGTGCACAGATACATATATATA | 9.68
TCGTCTCAATAATTATAATAAAAAAATTCCTAAGTC [CACACA_negctrl_site338] | 9.38
TTATATGTATATATAGTGCAGAACAAAAGATTATAT [GTGCAC_site9599] | 9.7
TTTTTGTTTCATAAATGTACAAAAACAAACATATTT [XGTACX_site5281] | 9.51
CTTATAAATAAAAGAAGTACATGTTAGTTCAAGTTA [XGTACX_site4183] | 9.6
TTGAAGAAAAAAAAATGTACATAAAAAATATATATG [XGTACX_site428] | 9.64

Sequence | gcPBM binding intensity (ln)
TTATTATCATCAAATCAAAAAATTCTTTTACCTGTT [CACACA_negctrl_site1348] | 9.49
TATATATATATATGTAGTACCTATAATATTAAATAC [XGTACX_site6118] | 9.65
AAGAAAAGAAACAAAAAAAAAAAGAAATAAAAGGAA [TGCATGCA_negctrl_site171] | 9.55
TATGAATGGTTAAGTACACACATATTAATATAGGTA [CACACA_site7606] | 9.86
ATCAATAAATAAAATGTGCACATAATATATTAATAC | 9.9
AATTTTTTTTTTTTTTTTTTTTATATATGTGTGTGT [XGTACX_negctrl_site129] | 11
TATAAAAAATATATATATAATATTATATATATATAT [TGCATGCA_negctrl_site260] | 9.56
ATTTTTTTTTTTTTTTGTACGAATAATATGTATGAA [XGTACX_site5318] | 9.47
AAAGGAGGGAATTTTTCTAGGTGTGGAGTGCTACTC [XGTACX_negctrl_site63] | 10.1
TTTCATCTCGTCATTTCTTATATAACTATTTTATAC [CACACA_negctrl_site813] | 9.81
ATTATTGTTTATTGATTTTTGTTAAAATAGGAAATT [GTGCAC_negctrl_site181] | 9.45
ATTATATTTATTAATATGTATATTTAATTATATTTA [XGTACX_negctrl_site376] | 9.27
TTCTTTATTATATGCACACGTACATAAAATATATAT [CACACA_site5157] | 9.82
CAAATTTTTTATTAAACACACAAACATATATATATA [CACACA_site5122] | 9.66
AAGTGTAAAAGTTACACACACAAACTTGTCATTTTT [CACACA_site4614] | 9.99
AAAAACAAAATATAATGTACACAATATATGTATATA [XGTACX_site2301] | 9.95
AAATATTACTACACTACATGCAGTTTTAGGTACACT [TGCATGCA_site42] | 9.73
AATAAACATAAATACACACACAAAAAAAAAAACATA [CACACA_site4396] | 10.3
TTTTTTTTTTTTTGATGTACTAAAAAAAATGAGCCT [XGTACX_site8535] | 9.03
GATATTAAAATATGTAGTACACATATTATATCATAT [XGTACX_site4167] | 9.69
TTAAAAATTATGGATACACACATATATATATATATT [CACACA_site2383] | 9.84
ATAGTTCCTTTTAATACACACAAAAAAAAAAACATG [CACACA_site3415] | 9.69
